The text below walks through data of the supplement of paper PMC10126150.

Sequences with one replicate were seen in a single cluster, so their values are uncertain.

The subject of this data set is ATP. In words: switch fluorescence ratio, 500 uM ATP over buffer (Cy3 cluster intensity, sum of 5 cycles each) (fold (ratio)); higher = stronger signal-on switching upon ATP binding; sequences stand for … in TCGTCGGCAGCGTCAGATGTGTATAAGAGACAGTTTTTTTTTTTTTTTTTTTTTTTTT…TC. The settings on record: aptamer strand: ATP DNA aptamer (quencher-CACCTGGGGGAGTATTGCGGAGGAAGG + anchor), 100 nM annealed; ATP concentration: 500 uM; one replicate. In outline: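 Switching-strand clusters labelled with Cy3 on a modified Illumina MiSeq flow-cell were annealed to 100 nM quencher-labelled ATP aptamer, imaged in selection buffer, and re-imaged after 15 min with 500 uM ATP at 22 °C. This was done over five cycles with NaOH stripping and re-annealing in between. The fluorescence ratio is summed target-cycle over summed buffer-cycle Cy3 intensity per cluster, averaged per switch-domain sequence, excluding clusters outside 100-1000 RFU.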
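Further: ATP exposure 15 min at 22 °C before imaging.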

As for GGGGCGGCCA, the switch fluorescence ratio was determined as 0.978.

As for AAGGGCAGTC, the switch fluorescence ratio is 0.991.

As for GGCGTCGGAC, the switch fluorescence ratio was found to be 1.02.

Regarding TAGATCAACT, the switch fluorescence ratio amounted to 0.975.

In the case of TAGAGTGAAA, the switch fluorescence ratio was determined as 1.03.

As to TCCATACG, the switch fluorescence ratio is 1.02.

Regarding AACTAGTTA, the switch fluorescence ratio is 1.02.

For the sequence TAGAATGCTA, the switch fluorescence ratio is 1.01.

As to AACCTGTATC, the switch fluorescence ratio worked out at 1.52.

Consider CTGCTCAAAG, for which the switch fluorescence ratio is 0.969.

For the sequence ATCGGAGAG, the switch fluorescence ratio was found to be 0.967.

Turning to GTCAGATTGC, the switch fluorescence ratio was 0.975.

On to TGAGCCGTTT, for which the switch fluorescence ratio amounted to 1.04.

As to CTAGTCCGAC, the switch fluorescence ratio was found to be 1.06.

As for GTCCCCTTAG, the switch fluorescence ratio is 1.03.

Take CTATACCGGG: the switch fluorescence ratio worked out at 1.

Turning to AAATCGGATT, the switch fluorescence ratio came to 1.03.

As for CCAGGAATTA, the switch fluorescence ratio stood at 1.07.

With TTATCTTTGG, the switch fluorescence ratio turned out to be 0.983.

As for TCTCTACCAA, the switch fluorescence ratio worked out at 1.31.

CTCAATTGC: the switch fluorescence ratio was determined as 1.18.

As to TGGAAACGC, the switch fluorescence ratio is 1.27.

On to CTGTCGACCC, for which the switch fluorescence ratio worked out at 1.03.

On to TTTGAGAACG, for which the switch fluorescence ratio worked out at 0.974.

Take TAGAACGTTC: the switch fluorescence ratio came to 0.96.

In the case of AGCCCTAGTG, the switch fluorescence ratio was 1.14.

In the case of AGATAGTAGA, the switch fluorescence ratio is 1.01.

With GGTGGTGCGC, the switch fluorescence ratio is 0.976.

For the sequence CGGTTATAGA, the switch fluorescence ratio was determined as 1.

On to GGGGCTGCCT, for which the switch fluorescence ratio amounted to 1.07.

ACGGCCTAGT: the switch fluorescence ratio was 1.03.

In the case of CTATTTGTAA, the switch fluorescence ratio turned out to be 1.03.

Take TCCGATAGG: the switch fluorescence ratio is 0.977.

Take TCAGGGTCCT: the switch fluorescence ratio turned out to be 1.08.

Take CCAATCAATA: the switch fluorescence ratio was 1.3.

Consider GCCCTGTAAC, for which the switch fluorescence ratio turned out to be 1.05.

Take AGGTGCGAAG: the switch fluorescence ratio was 0.993.

In the case of GGAAGCATCA, the switch fluorescence ratio came out at 1.02.

Turning to TATTAGAC, the switch fluorescence ratio was determined as 1.07.

Regarding AGACCTCGGA, the switch fluorescence ratio was 1.04.

On to AGGTATGAAT, for which the switch fluorescence ratio stood at 1.01.

As to TTGGTTGTGC, the switch fluorescence ratio is 1.02.

As to AGAGTGGTTG, the switch fluorescence ratio stood at 1.01.

Turning to GCGCACGAGT, the switch fluorescence ratio was found to be 1.01.

For TCACCTAACA, the switch fluorescence ratio amounted to 1.12.

Consider ACTTTATACA, for which the switch fluorescence ratio is 1.09.

TTAGTCCAAC: the switch fluorescence ratio was 0.995.

On to AGATGACTGG, for which the switch fluorescence ratio came out at 1.02.

For CCATCTTTCG, the switch fluorescence ratio is 0.967.

Turning to CGCTAAGTG, the switch fluorescence ratio was 1.02.

Turning to GGTAACTACG, the switch fluorescence ratio was 1.09.

Consider AGATAGCCGT, for which the switch fluorescence ratio is 0.962.

On to ATTACTGACG, for which the switch fluorescence ratio was determined as 1.02.

On to CCCCCCCACT, for which the switch fluorescence ratio was determined as 1.13.

On to AAACACTCTT, for which the switch fluorescence ratio stood at 1.08.

TGATCCAGGT: the switch fluorescence ratio was 1.17.

As to TGCACTCGTA, the switch fluorescence ratio was determined as 1.02.

TTAGACTAAC: the switch fluorescence ratio was 1.02.

Turning to GTCTGACGA, the switch fluorescence ratio was 1.04.

Take AAGTCAGGTT: the switch fluorescence ratio stood at 1.

Regarding GGGCCGTTCC, the switch fluorescence ratio was 1.02.

As for AGGTCCTCTT, the switch fluorescence ratio was determined as 1.03.

For TTCTTATAC, the switch fluorescence ratio amounted to 1.05.

In the case of TCCGGTCGCT, the switch fluorescence ratio was 1.24.

ATGGACGACC: the switch fluorescence ratio was found to be 1.07.

With TTACTCCTAC, the switch fluorescence ratio was 1.91.

Consider GAACGACCTT, for which the switch fluorescence ratio came to 1.2.

CATAAAATA: the switch fluorescence ratio was found to be 0.986.

For GTTACCACTT, the switch fluorescence ratio came out at 1.03.

Regarding GAGTTTACTT, the switch fluorescence ratio turned out to be 1.05.

With CATCGTCGTT, the switch fluorescence ratio was 1.01.

For the sequence TACAGGGGAT, the switch fluorescence ratio was 1.06.

As to GGACATTTTC, the switch fluorescence ratio amounted to 1.03.

In the case of ATTTCACATG, the switch fluorescence ratio is 1.02.

As to TTATGTGTCA, the switch fluorescence ratio came to 1.02.

Turning to GACACGAAAG, the switch fluorescence ratio stood at 0.972.

As to TCAACCTGAT, the switch fluorescence ratio was found to be 1.08.

For TAATGTACTT, the switch fluorescence ratio stood at 1.46.

In the case of TCCAAAGTGC, the switch fluorescence ratio was 1.85.

Regarding GAGGCCAGGT, the switch fluorescence ratio is 1.58.

In the case of GGTCTTGTCA, the switch fluorescence ratio turned out to be 1.01.

As for ATCGTCATAA, the switch fluorescence ratio was found to be 1.02.

On to CGTGAGAAGC, for which the switch fluorescence ratio was found to be 1.01.

Take ATGCTTTGGA: the switch fluorescence ratio stood at 1.04.

On to TATGGTTATT, for which the switch fluorescence ratio was 0.996.

With TATTATTCGC, the switch fluorescence ratio amounted to 1.07.

Take TAGTTTGCAG: the switch fluorescence ratio worked out at 1.03.

Consider ATAGTTAGAT, for which the switch fluorescence ratio was 0.988.

Regarding ACAGTGAGCT, the switch fluorescence ratio amounted to 0.975.

Turning to CAACATATAT, the switch fluorescence ratio is 0.965.

For the sequence TGCGTTAATG, the switch fluorescence ratio was 0.994.

Turning to GCCCTTATCT, the switch fluorescence ratio is 0.995.

On to TAATCCCAAC, for which the switch fluorescence ratio is 1.09.

With AGGGGCTGTT, the switch fluorescence ratio worked out at 0.937.

On to TTTGGTGTGT, for which the switch fluorescence ratio amounted to 0.981.

In the case of TCTAGACGGG, the switch fluorescence ratio was determined as 1.01.

On to TAGGGTCGAA, for which the switch fluorescence ratio was found to be 0.989.

On to CGACACGGTG, for which the switch fluorescence ratio came to 0.992.

Turning to GGGACTCCCT, the switch fluorescence ratio is 1.01.

For the sequence TGTTGACGAT, the switch fluorescence ratio stood at 1.02.

As to AAAGATGAAA, the switch fluorescence ratio worked out at 1.01.

In the case of CTTTGACAGT, the switch fluorescence ratio was determined as 0.979.

On to CCAATTTTGT, for which the switch fluorescence ratio was found to be 0.969.

GGCGTACGT: the switch fluorescence ratio worked out at 0.964.

For CAAAGCATG, the switch fluorescence ratio was determined as 1.05.

GCGGAATGGT: the switch fluorescence ratio was 1.09.

On to GAATTGGTTA, for which the switch fluorescence ratio is 0.989.

With ACTGTAGTAA, the switch fluorescence ratio turned out to be 1.

Regarding GCAATTTTTA, the switch fluorescence ratio stood at 1.01.

In the case of TGCGTCCGAG, the switch fluorescence ratio turned out to be 1.07.

As for GAGTCAGATG, the switch fluorescence ratio came out at 0.965.

TATCCCGGGC: the switch fluorescence ratio came out at 1.

In the case of ATGCATATGC, the switch fluorescence ratio amounted to 1.07.

Consider GTATGTCGCT, for which the switch fluorescence ratio was found to be 0.999.

Regarding TTCGGAAAC, the switch fluorescence ratio worked out at 1.11.

For the sequence TGCCGTCTGC, the switch fluorescence ratio turned out to be 0.944.

For AATAGTGAG, the switch fluorescence ratio worked out at 0.971.

TGACTGGTAA: the switch fluorescence ratio was 1.2.

With AGCACTATTT, the switch fluorescence ratio stood at 0.968.

With AGAGAAAGTC, the switch fluorescence ratio was 1.02.
